Experimental data as given in PubChem BioAssay AID887 (National Center for Advancing Translational Sciences (NCATS), 2007).
Out of some 74,000 compounds screened, about 1,100 (1.5%) were called active. Inconclusive means that the source gave no clear call. Such entries were picked first, then a sample of the others. Calls come from the whole dose curve; as a rule, active = well fitted inhibition curve with a large enough effect; inconclusive = small, poorly fitted or top-dose-only effect; inactive = no such curve, though single readings can be large or run the other way. No potency is given beside an inconclusive call; the fits are too rough.

Target: Polyunsaturated fatty acid lipoxygenase ALOX15 (Homo sapiens) (UniProt P16050)
Sequence of UniProt P16050 (P16050 whole entry, looked up): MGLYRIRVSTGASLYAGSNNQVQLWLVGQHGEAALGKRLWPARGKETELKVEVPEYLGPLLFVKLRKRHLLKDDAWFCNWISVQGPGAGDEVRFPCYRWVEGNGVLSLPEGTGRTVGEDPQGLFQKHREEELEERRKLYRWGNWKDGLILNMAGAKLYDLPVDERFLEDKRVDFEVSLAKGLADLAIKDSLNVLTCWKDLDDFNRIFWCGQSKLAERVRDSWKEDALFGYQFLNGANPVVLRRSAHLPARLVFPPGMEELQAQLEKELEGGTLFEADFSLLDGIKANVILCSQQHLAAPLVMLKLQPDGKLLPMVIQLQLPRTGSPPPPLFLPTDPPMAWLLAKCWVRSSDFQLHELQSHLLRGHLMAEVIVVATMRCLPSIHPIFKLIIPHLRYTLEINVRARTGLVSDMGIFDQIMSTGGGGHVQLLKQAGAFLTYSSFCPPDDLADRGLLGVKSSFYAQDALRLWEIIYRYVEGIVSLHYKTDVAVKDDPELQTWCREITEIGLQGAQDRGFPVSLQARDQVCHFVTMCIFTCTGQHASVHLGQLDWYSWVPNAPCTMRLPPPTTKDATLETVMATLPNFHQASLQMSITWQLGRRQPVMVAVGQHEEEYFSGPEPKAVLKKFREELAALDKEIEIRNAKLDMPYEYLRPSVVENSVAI
Assay: qHTS Assay for Inhibitors of 15-hLO (15-human lipoxygenase); note: nearly all actives have a fitted effect of over 55% in size
Conditions: purified 15hLO-1, xylenol orange hydroperoxide absorbance; activity change, negative = inhibition: at 57.1 µM (top of the series) unless noted
Summary of the method: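 Inhibition is scored from a chromogenic endpoint. After 15 min enzyme-compound contact, arachidonic acid (50 uM final) reacts 6 min with 40 nM 15hLO-1 at room temperature, then Fe-XO reagent is added for 30 min and absorbance ratio recorded.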
% is set by controls: 0 for no effect and ±100 for the full control effect; potency is the fitted concentration of half-maximal effect; tags give direction and shape of the fitted curve.

SMILES	Potency	activity change, negative = inhibition
COc1ccc(NC2=NC3(CCCCC3)N=C(N)N2)cc1	active: 25.1 µM	
CCOC(=O)c1cnc(SCC(=O)c2ccc3c(c2)OCCO3)nc1N	inconclusive [inhibitor, single point]	
CN(C)c1ccc(-c2nc(NCc3cccnc3)c3ccccc3n2)cc1	active: 20 µM	
Cn1c(=O)c(CCc2ccccc2)nc2cnc(N3CCOCC3)nc21	inconclusive [inhibitor, single point]	
CCOC(=O)c1sc(NC(C)=O)cc1C	inconclusive [inhibitor, single point]	
C=CCn1c(SCc2ccccc2C#N)nnc1-c1cc(Br)ccc1O	inconclusive [inhibitor, single point]	
CCN(CC)CCOc1cc2c(nn1)Oc1ccccc1N2C	inconclusive [inhibitor, single point]	
COc1ccc2[nH]cc(CCNc3ccnc(-c4ccc5c(c4)OCO5)n3)c2c1	inconclusive [inhibitor, single point]	
Cn1cnnc1SCC(=O)c1c[nH]c2ccccc12	inactive	
CCOC(=O)c1oc2nc(C(C)C)c3c(c2c1N)CC(C)(C)OC3	inactive	
CC(C)=CCC/C(C)=C/COc1c2occc2cc2ccc(=O)oc12	inconclusive [inhibitor, single point]	
CO[C@@H]1COC(=O)[C@@H](C)COC(=O)[C@@H](C)NC(=O)C/C=C\[C@@H]1C		inactive: 0.236% [at 11.4 µM]
CCCn1c(NC(=O)c2ccc(C)cc2)nc2ccccc21	inactive	
CCOc1ccc(OCC)c(NC(=O)C2CCN(S(=O)(=O)c3cccc4nonc34)CC2)c1	inactive	
Cc1ccc(S(=O)(=O)c2c(C)nn(C(C)(C)C)c2OC(=O)C(C)(C)C)cc1	inconclusive [inhibitor, single point]	
CCOC(OCC)P(=O)(O)CCCNCc1ccc(Cl)c(Cl)c1	inconclusive [inhibitor, single point]	
Cc1cccc(CN2CCN(C(c3ccccc3)c3ccc(Cl)cc3)CC2)c1 (stereo not drawn)	inconclusive [inhibitor, single point]	
COCCn1nnnc1C(c1cc2cc(OC)ccc2[nH]c1=O)N1CCC(Cc2ccccc2)CC1 (stereo not drawn)	inconclusive [inhibitor, partial curve]	
CCn1c(=S)sc2c(=O)n(-c3ccccc3)c(SC)nc21	inactive	
O=C(c1ccncc1)N1CCC2(CC1)CCN(c1ccncc1)CC2	inactive	
COc1ccc(-c2ccc(=O)n(CC(=O)Nc3cccc(O)c3)n2)cc1OC	inconclusive [inhibitor, single point]	
CCOc1ccc(Nc2oc(Cc3ccccc3)nc2C#N)cc1	inconclusive [inhibitor, partial curve]	
c1coc(C2Nc3cccc4cccc(c34)N2)c1	active: 1.58 µM	
COC(=O)CCn1nnc(-c2cccs2)n1	inactive	
CCCN1CCC(NC(=O)Nc2ccc(OC)c(OC)c2)CC1	inactive	

SMILES	Potency	activity change, negative = inhibition
Cc1nc2ccccc2c(=O)n1NC(=O)c1c(O)c2ccccc2n(C)c1=O	inactive	
CC1=C2C(O)C(=O)OC3CC4C(C)(C)C(=O)C=C[C@]4(C)C(CC1)[C@@]23C (stereo partly drawn)	inconclusive [inhibitor, single point]	
NC(=O)NC1CCCc2c1[nH]c1ccc(Cl)cc21 (stereo not drawn)	inconclusive [inhibitor, single point]	
O=C(Nc1cccc(F)c1)N1CC[C@@]2(CCCN(S(=O)(=O)c3ccccc3)C2)C1	inactive	
O=c1c2c3c(sc2nc2n1CCCCC2)CCCC3	inconclusive [inhibitor, single point]	
COc1ccccc1-n1nc(C(=O)Nc2ccc3c(c2)OCO3)c2ccccc2c1=O	inactive	
CCN(Cc1nc2ccccc2c(=O)[nH]1)Cc1cc(=O)oc2cc(C)c(C)cc12	inconclusive [inhibitor, full curve]	
CN(C(=O)c1ccncc1)C1CC(C)(C)N(O)C(C)(C)C1	inconclusive [inhibitor, partial curve]	
CCc1nnc(NC(=O)CSc2nnc(-c3ccoc3C)n2CC(C)C)s1	inconclusive [inhibitor, full curve, poor fit]	
N#CC1=C2SCN(Cc3ccco3)CN2C(=O)CC1c1cccc2ccccc12 (stereo not drawn)	active: 7.94 µM	
CC(C)CO/N=C1/C[C@@H](O)[C@@H](O)[C@@H]2[C@@H]3C(=O)N([C@@H](C)c4ccccc4)C(=O)[C@H]3CC[C@@H]12		inactive: 3.78% [at 11.4 µM]
Cc1ccc(Cl)cc1N1CCN(C(c2cccnc2)c2nnnn2C2CCCCC2)CC1 (stereo not drawn)	inactive	
CCOC(=O)N1CCN(c2c(-c3ccc(C)c(C)c3)c(=O)c2=O)CC1	inconclusive [inhibitor, single point]	
COC(=O)N1[C@H](Cc2ccccc2)C=C[C@]1(C)C(=O)NCc1ccccn1	inconclusive [inhibitor, single point]	
CC(C)=CCC[C@](C)(O)C1CC=C(C)CC1 (stereo partly drawn)	active: 12.6 µM	
CC(=O)N(c1ccc2oc(=O)sc2c1)S(=O)(=O)c1ccccc1	active: 15.8 µM	
CCOC(=O)C(=O)C1(C(=O)OCC)Oc2cc(OC)cc(OC)c2C(=O)C1c1ccccc1 (stereo not drawn)	inactive	
c1ccc(Nc2nc(-c3cccs3)cs2)nc1	inconclusive [inhibitor, single point]	
C=CCn1c(=O)/c(=C/c2ccc(C)o2)s/c1=C(/C#N)C(=O)c1ccccc1	active: 15.8 µM	
NC(Cc1ccc(O)c(O)c1)C(=O)O (stereo not drawn)	active: 3.98 µM	
CN1C(=O)c2ccccc2C(C(=O)NCCCN2CCCC2)C1c1c[nH]c2ccccc12 (stereo not drawn)	inconclusive [inhibitor, partial curve]	
Cc1cccc2c1Oc1ccccc1[C@@H]2NC(=O)c1ccc([N+](=O)[O-])cc1		inactive: 4.49% [at 11.4 µM]
NC(=O)c1c(NC(=O)CSc2nnc(-c3ccco3)n2-c2ccccc2)sc2c1CCC2	active: 25.1 µM	
c1ccc2c(c1)OCC(c1nnc3sc(-c4ccc5c(c4)OCO5)nn13)O2 (stereo not drawn)	inconclusive [inhibitor, partial curve]	
CCCCCCc1ccc(O)cc1O	inconclusive [inhibitor, single point]	

SMILES	Potency	activity change, negative = inhibition
Cc1ccnc(-n2sc3ccccc3c2=O)n1	active: 20 µM	
COc1ccc(O)c(-c2cc(-c3cccs3)[nH]n2)c1	active: 25.1 µM	
CCOc1ccccc1NC1c2ccccc2C(=O)N1Cc1ccco1 (stereo not drawn)	inconclusive [inhibitor, partial curve]	
COc1ccc(C2C(C#N)=C(N)OC(C(C)(C)C)=C2C#N)cc1OC (stereo not drawn)	inconclusive [inhibitor, single point]	
O=S(=O)(NCc1csc(-c2ccccc2)n1)c1ccc(Cl)s1	inconclusive [inhibitor, partial curve, poor fit]	
Cc1ccc(C)c(SCC(=O)Nc2nnc(-c3ccccc3)o2)c1	inactive	
Cc1ccc(C)c2[nH]c(=O)c(C(c3nnnn3Cc3ccco3)N3CCc4ccccc4C3)cc12 (stereo not drawn)	inconclusive [inhibitor, full curve]	
CCCCOc1cc(C(=O)NCCN(CC)CC)c2ccccc2n1	inconclusive [inhibitor, single point]	
O=C(O)[C@H]1C[C@@H](CP(=O)(O)O)CCN1	inconclusive [inhibitor, single point]	
Cc1cc(C)n2c(=S)[nH]nc2n1	inconclusive [inhibitor, full curve, poor fit]	
Nc1nc(CN2CCN(c3ccccn3)CC2)nc(Nc2ccc(Cl)cc2)n1	inactive	
O=C(OCc1c(Cl)nc2sccn12)c1cc2c(s1)CCCC2	inactive	
COc1cccc(C2C3CN(C)CC=C3C(C#N)=C(N)C2(C#N)C#N)c1OC (stereo not drawn)	inconclusive [inhibitor, single point]	
COc1cc(OC)c(C2CC(=O)N3CN(c4ccccc4)CSC3=C2C#N)cc1OC (stereo not drawn)	inconclusive [inhibitor, full curve]	
COC(=O)C1=C(C)[C@@H](O)[C@@H](C)[C@H](c2c(OC)c(OC)c(C)c(OC)c2OC)O1		inactive: 7.34% [at 11.4 µM]
O=C(COC(=O)c1cccnc1Nc1ccccc1F)NCc1ccc2c(c1)OCO2	inconclusive [inhibitor, full curve]	
Cc1csc(NC(=O)c2sc3nc(-c4cccs4)ccc3c2N)n1	inconclusive [inhibitor, partial curve]	
Cc1ccccc1OCCCN1C(=O)C(=O)c2cccc(C)c21	inconclusive [inhibitor, partial curve]	
COc1ccc(-c2nc3cnc(N4CCNCC4)nc3n(-c3ccccc3)c2=O)cc1	inactive	
O=C(CSc1nc2ccccc2[nH]1)Nc1cc(C(F)(F)F)ccc1N1CCOCC1	inconclusive [inhibitor, partial curve]	
CS(=O)(=O)c1sc2nc(-c3cccs3)cc(-c3ccccc3)c2c1N	inconclusive [inhibitor, partial curve]	
COc1ccc2[nH]c3c(NCCN(C(C)C)C(C)C)ncnc3c2c1	inconclusive [inhibitor, single point]	
CCc1ccc2[nH]c(=O)c(C(c3nnnn3CCOC)N3CCN(c4ccc(F)cc4)CC3)cc2c1 (stereo not drawn)	inconclusive [inhibitor, single point]	
